The target of this assay is GTPase KRas (Homo sapiens) (UniProt P01116). Kind of assay: Covalent labelling of cysteine mutants by fragments, read by mass spectrometry (AID 2202238). The settings on record: KRAS G12D cysteine mutants, disulfide tethering, MALDI-TOF labeling, stronger effect = higher value, fragment at 500 µM. More on the design: protein at 5 µM with 500 µM competing thiol for 1.5 h.
[1] abbreviates: measured here: G60C mutant labeling.
Where [2] appears, read: measured here: G75C mutant labeling.
Where [3] appears, read: measured here: H94C mutant labeling.
The mark [4] stands for this setting: measured here: I36C mutant labeling.
[5] abbreviates: measured here: L120C mutant labeling.
Setting [6] is: measured here: M67C mutant labeling.
[7] abbreviates: measured here: M72C mutant labeling.
Setting [8] is: measured here: N26C mutant labeling.
[9] abbreviates: measured here: N86C mutant labeling.
The mark [10] stands for this setting: measured here: P121C mutant labeling.
Setting [11] is: measured here: S122C mutant labeling.
Where [12] appears, read: measured here: S136C mutant labeling.

The other results are listed elsewhere or left out. The main result of the screen is listed elsewhere. These columns were measured beside it and carry no call.

UniProt P01116, sequence (P01116 whole entry, looked up, the tested form may be a part): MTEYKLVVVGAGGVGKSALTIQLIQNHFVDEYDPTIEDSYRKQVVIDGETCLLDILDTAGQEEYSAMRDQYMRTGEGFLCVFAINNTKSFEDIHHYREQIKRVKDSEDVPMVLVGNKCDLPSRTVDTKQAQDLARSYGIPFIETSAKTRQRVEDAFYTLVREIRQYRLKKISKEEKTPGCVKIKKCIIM

Regarding `O=C(NCCS)C1CCCN(C(=O)c2ccncc2)C1` (centres undefined), the percent labeling is, setting by setting: under setting [1], 25%; under setting [2], 10.1%; under setting [3], 31%; under setting [4], 26.6%; under setting [5], 34.2%; under setting [6], 33.2%. The percent labeling stood at 13.8% under setting [7]; 34.1% under setting [8]; 25.6% under setting [9]; 28.2% under setting [10]; 27.8% under setting [11]; 36.9% under setting [12].
As for `O=C(CCS)N(Cc1nc(C2CCCCCC2)no1)C1CC1`, the percent labeling stood at 12.8% under setting [2]; 27.6% under setting [3]; 22.6% under setting [4]; 18% under setting [5]; 26.9% under setting [6]; 36.8% under setting [7]. In addition, the percent labeling turned out to be 20.7% under setting [9], 21.4% under setting [10], 17.1% under setting [11] and 45.5% under setting [12].
For `O=C(Cc1ccc(-n2cccn2)cc1)NCCS`, the percent labeling runs as follows: under setting [1], 22.4%; under setting [2], 10.1%; under setting [3], 18.7%; under setting [4], 16.6%; under setting [5], 22.8%; under setting [6], 13.5%. This compound also returned a percent labeling under setting [7] of 23%; a percent labeling under setting [8] of 27.1%; a percent labeling under setting [9] of 13.8%; a percent labeling under setting [10] of 13.5%; a percent labeling under setting [11] of 14.2%; a percent labeling under setting [12] of 19.5%.
For `CCc1[nH]c(-c2ccc(Cl)cc2)nc1C(=O)NCCS`, the percent labeling runs as follows: under setting [1], 30.7%; under setting [2], 13.8%; under setting [3], 18.2%; under setting [4], 10.4%; under setting [5], 15.6%; under setting [6], 10.9%. The percent labeling is 43.5% under setting [7]; 38.9% under setting [8]; 15% under setting [9]; 13% under setting [10]; 8.3% under setting [11]; 19.3% under setting [12].
As to `Cc1ccc(-c2nn(C)cc2C(=O)NCCS)o1`, the percent labeling by setting is: under setting [1], 33.8%; under setting [2], 30.4%; under setting [3], 33.3%; under setting [4], 10.2%; under setting [5], 32.1%; under setting [6], 25.4%. The compound also gave a percent labeling under setting [7] of 24.9%; a percent labeling under setting [8] of 26.1%; a percent labeling under setting [9] of 13.5%; a percent labeling under setting [10] of 21.2%; a percent labeling under setting [11] of 13.3%; a percent labeling under setting [12] of 21.3%.
Regarding `O=C1NCC(C(=O)NCCS)c2ccccc21` (centres undefined), the percent labeling by setting is: under setting [1], 31.2%; under setting [2], 11.9%; under setting [3], 29.5%; under setting [4], 29.3%; under setting [5], 43.8%; under setting [6], 30.2%. Moreover, the percent labeling is 17% under setting [7]; 32% under setting [8]; 27.7% under setting [9]; 27% under setting [10]; 30.2% under setting [11]; 43% under setting [12].
With `Cc1ccn(CC(C)(O)C(=O)NCCS)c(=O)c1` (centres undefined), the percent labeling by setting is: under setting [1], 21.8%; under setting [2], 8.9%; under setting [3], 30.6%; under setting [4], 23%; under setting [5], 29%; under setting [6], 30.7%. The compound further came in with a percent labeling under setting [7] of 12.9%; a percent labeling under setting [8] of 34.7%; a percent labeling under setting [9] of 22%; a percent labeling under setting [10] of 37%; a percent labeling under setting [11] of 27.9%; a percent labeling under setting [12] of 38%.
For `O=C(Cn1c(=O)ccn(Cc2ccccc2)c1=O)NCCS`, the percent labeling stood at 38.6% under setting [1]; 17.3% under setting [2]; 37.2% under setting [3]; 34.2% under setting [4]; 47.5% under setting [5]; 50% under setting [6]. The percent labeling runs as follows: under setting [7], 39.1%; under setting [8], 37.5%; under setting [9], 26.1%; under setting [10], 36.6%; under setting [11], 38.2%; under setting [12], 50.3%.
`O=C(NCCS)c1cnn2cc(Br)cnc12` displayed a percent labeling under setting [1] of 40.3%; a percent labeling under setting [2] of 33.2%; a percent labeling under setting [3] of 32.3%; a percent labeling under setting [4] of 23.6%; a percent labeling under setting [5] of 33.8%; a percent labeling under setting [6] of 34.8%. Besides, the percent labeling worked out at 57.7% under setting [7]; 43.8% under setting [8]; 19.9% under setting [9]; 22.2% under setting [10]; 25.9% under setting [11]; 46.3% under setting [12].
Regarding `CC1(C)CCc2nc(NC(=O)CCS)sc2C1`, the percent labeling was 9.4% under setting [2]; 14.1% under setting [3]; 0% under setting [4]; 25.3% under setting [5]; 18.3% under setting [6]; 37.8% under setting [7]. Further, the percent labeling was determined as 0% under setting [9], 15.4% under setting [10], 14.1% under setting [11] and 29% under setting [12].
Turning to `O=C(NCCS)c1ccc(CN2CCCC2)o1`, the percent labeling was 38.9% under setting [1]; 22.9% under setting [2]; 36.7% under setting [3]; 35.6% under setting [4]; 34.8% under setting [5]; 45.2% under setting [6]. Further, the percent labeling was determined as 32.6% under setting [7]; 44.6% under setting [8]; 29.8% under setting [9]; 29.2% under setting [10]; 33.8% under setting [11]; 52.6% under setting [12].
Regarding `CC(=O)N1CC(C(=O)NCCS)Oc2ccccc21` (centres undefined), the percent labeling reads like this: under setting [1], 30.6%; under setting [2], 10.9%; under setting [3], 33.7%; under setting [4], 27.2%; under setting [5], 34.9%; under setting [6], 26.6%. The percent labeling runs as follows: under setting [7], 27.9%; under setting [8], 29.6%; under setting [9], 20.6%; under setting [10], 36.4%; under setting [11], 28.7%; under setting [12], 56.7%.
On to `Cc1cc(C)n(Cc2cccc(NC(=O)CCS)c2)n1`, for which the percent labeling under setting [2] is 14.3%; the percent labeling under setting [3] stood at 36.1%; the percent labeling under setting [4] was 32.5%; the percent labeling under setting [5] came out at 23.9%; the percent labeling under setting [6] turned out to be 26.5%; the percent labeling under setting [7] was 36%. The compound further yielded a percent labeling under setting [9] of 23.9%, a percent labeling under setting [10] of 24.7%, a percent labeling under setting [11] of 25% and a percent labeling under setting [12] of 61.6%.
In the case of `O=C(NCCS)C1CCCN1C(=O)Cc1cn2ccsc2n1` (centres undefined), the percent labeling was determined as 18.8% under setting [1]; 7.3% under setting [2]; 22.2% under setting [3]; 10.1% under setting [4]; 23% under setting [5]; 19.6% under setting [6]. The percent labeling is, setting by setting: under setting [7], 17.5%; under setting [8], 16.7%; under setting [9], 10.6%; under setting [10], 14.9%; under setting [11], 12.2%; under setting [12], 27.1%.
The compound `O=C(CCS)NCc1cc(Oc2cccc(F)c2)ccn1` displayed a percent labeling under setting [2] of 20.3%; a percent labeling under setting [3] of 54.7%; a percent labeling under setting [4] of 43%; a percent labeling under setting [5] of 33.8%; a percent labeling under setting [6] of 51.7%; a percent labeling under setting [7] of 38.2%. Further, the percent labeling by setting is: under setting [9], 23.5%; under setting [10], 30.1%; under setting [11], 23.6%; under setting [12], 51.7%.
As to `O=C(NCCS)c1cncn1-c1ccc(F)cc1`, the percent labeling under setting [1] was 46.1%; the percent labeling under setting [2] came out at 16.9%; the percent labeling under setting [3] was found to be 40.2%; the percent labeling under setting [4] is 26.5%; the percent labeling under setting [5] amounted to 47.1%; the percent labeling under setting [6] amounted to 36.7%. Besides, the percent labeling is, setting by setting: under setting [7], 31.5%; under setting [8], 45.2%; under setting [9], 25.1%; under setting [10], 31.3%; under setting [11], 29.3%; under setting [12], 43.1%.
`CCN(CC)C(C(=O)NCCS)c1cc(Cl)cc(Cl)c1` (centres undefined): the percent labeling under setting [1] was found to be 49.3%; the percent labeling under setting [2] stood at 15.3%; the percent labeling under setting [3] is 16.7%; the percent labeling under setting [4] was found to be 11.6%; the percent labeling under setting [5] came to 23.1%; the percent labeling under setting [6] was 13.6%. Further, the percent labeling is, setting by setting: under setting [7], 27.7%; under setting [8], 27.4%; under setting [9], 8.7%; under setting [10], 10.4%; under setting [11], 7.7%; under setting [12], 14.9%.
In turn, `O=C(CCS)N1Cc2ncccc2N2CCC[C@H]2C1` showed a percent labeling under setting [2] of 11.6%; a percent labeling under setting [3] of 41.5%; a percent labeling under setting [4] of 32.8%; a percent labeling under setting [5] of 26.9%; a percent labeling under setting [6] of 37.5%; a percent labeling under setting [7] of 22.8%. The percent labeling is, setting by setting: under setting [9], 27.8%; under setting [10], 28.9%; under setting [11], 33.2%; under setting [12], 55.6%.
In the case of `CC1CN(C(=O)CCS)CCc2cc(Br)c(O)cc21` (centres undefined), the percent labeling under setting [2] was determined as 26%; the percent labeling under setting [3] stood at 32%; the percent labeling under setting [4] was determined as 21.9%; the percent labeling under setting [5] stood at 21.1%; the percent labeling under setting [6] stood at 32.3%; the percent labeling under setting [7] was 47.9%. Also, the percent labeling worked out at 25.9% under setting [9], 20.8% under setting [10], 16.8% under setting [11] and 45.1% under setting [12].
Take `CC(CC(=O)NCCS)c1ccccc1Br` (centres undefined): the percent labeling stood at 53.9% under setting [1]; 16.1% under setting [2]; 27.1% under setting [3]; 20.8% under setting [4]; 32.4% under setting [5]; 38.3% under setting [6]. Also, the percent labeling under setting [7] worked out at 45.4%; the percent labeling under setting [8] turned out to be 33.2%; the percent labeling under setting [9] is 17.3%; the percent labeling under setting [10] amounted to 31.7%; the percent labeling under setting [11] is 20.1%; the percent labeling under setting [12] turned out to be 35.6%.
`Cc1cc2occ(CC(=O)NCCS)c2cc1C`: the percent labeling reads like this: under setting [1], 31.3%; under setting [2], 12.9%; under setting [3], 8.5%; under setting [4], 15.5%; under setting [5], 14.9%; under setting [6], 9.5%. Moreover, the percent labeling is 31.9% under setting [7]; 26.6% under setting [8]; 5.8% under setting [9]; 9.9% under setting [10]; 10.3% under setting [11]; 12.2% under setting [12].
In the case of `O=C(NCCS)c1cc(-c2ccco2)n(-c2cccc(Cl)c2)n1`, the percent labeling reads like this: under setting [1], 11%; under setting [2], 12.3%; under setting [3], 9.5%; under setting [4], 6%; under setting [5], 10.5%; under setting [6], 3.5%. In addition, the percent labeling came to 10.9% under setting [7]; 8.2% under setting [8]; 3.3% under setting [9]; 5.4% under setting [10]; 0% under setting [11]; 15.2% under setting [12].
Compound `O=C(NCCS)c1c(C(F)(F)F)oc2ccccc12` displayed a percent labeling under setting [1] of 62.2%; a percent labeling under setting [2] of 14.9%; a percent labeling under setting [3] of 22.6%; a percent labeling under setting [4] of 12.7%; a percent labeling under setting [5] of 23.9%; a percent labeling under setting [6] of 15.5%. The percent labeling was determined as 35% under setting [7]; 33.2% under setting [8]; 16.8% under setting [9]; 19.2% under setting [10]; 14.6% under setting [11]; 19.4% under setting [12].
